The values below come from PMC12807484.

The chains behind the UniProt entries cited, without tags or fusion partners. Residues count along the entry.
UniProt Q5HYA8, residues 37-995: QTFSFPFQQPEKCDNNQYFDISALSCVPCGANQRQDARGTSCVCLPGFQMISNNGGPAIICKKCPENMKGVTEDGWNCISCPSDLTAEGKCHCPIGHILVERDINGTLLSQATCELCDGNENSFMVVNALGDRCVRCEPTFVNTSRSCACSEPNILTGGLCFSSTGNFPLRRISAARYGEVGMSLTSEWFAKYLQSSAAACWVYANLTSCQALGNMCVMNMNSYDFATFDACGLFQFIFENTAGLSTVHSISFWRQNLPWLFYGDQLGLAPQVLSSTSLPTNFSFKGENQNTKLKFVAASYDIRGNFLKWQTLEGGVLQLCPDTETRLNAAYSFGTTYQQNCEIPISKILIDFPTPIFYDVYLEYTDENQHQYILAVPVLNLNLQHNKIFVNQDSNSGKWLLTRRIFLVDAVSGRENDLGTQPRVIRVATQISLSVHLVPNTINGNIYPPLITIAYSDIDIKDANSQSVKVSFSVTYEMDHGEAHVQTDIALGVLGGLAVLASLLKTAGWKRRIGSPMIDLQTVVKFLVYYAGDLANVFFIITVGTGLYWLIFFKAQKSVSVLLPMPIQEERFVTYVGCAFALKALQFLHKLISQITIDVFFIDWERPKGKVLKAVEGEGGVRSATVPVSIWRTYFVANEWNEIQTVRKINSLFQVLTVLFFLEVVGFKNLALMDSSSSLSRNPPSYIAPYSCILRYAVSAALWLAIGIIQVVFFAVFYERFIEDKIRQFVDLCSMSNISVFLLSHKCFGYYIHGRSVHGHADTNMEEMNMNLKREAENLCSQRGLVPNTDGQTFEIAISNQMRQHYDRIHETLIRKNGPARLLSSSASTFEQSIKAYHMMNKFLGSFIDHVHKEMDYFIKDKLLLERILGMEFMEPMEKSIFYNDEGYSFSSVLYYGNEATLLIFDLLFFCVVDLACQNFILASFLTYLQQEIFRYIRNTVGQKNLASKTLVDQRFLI

No constants are given. Whether binding was seen depends on the method and setting. Binding seen in cells or lysates may run through a third protein. Some results given as binding are weak or reduced against the parent protein; the word gives no strength. Where a sequence is shown, tags or fusion partners need not be part of it.

One assay deals with TMEM67-FLAG (UniProt Q5HYA8). The experiment in a line: co-IP; lysates of co-transfected HEK293T cells; FLAG-TMEM67 as bait; IP buffer 50 mM Tris-HCl pH 7.5, 150 mM NaCl, 1 mM EDTA, 5% glycerol, 0.5% Triton X-100; beads 3 hours at 4°C; Western blot.
Assay [1] addresses T1, MKS1 (co-IP of Figure 6H) (UniProt Q9NXB0).
T1 sequence: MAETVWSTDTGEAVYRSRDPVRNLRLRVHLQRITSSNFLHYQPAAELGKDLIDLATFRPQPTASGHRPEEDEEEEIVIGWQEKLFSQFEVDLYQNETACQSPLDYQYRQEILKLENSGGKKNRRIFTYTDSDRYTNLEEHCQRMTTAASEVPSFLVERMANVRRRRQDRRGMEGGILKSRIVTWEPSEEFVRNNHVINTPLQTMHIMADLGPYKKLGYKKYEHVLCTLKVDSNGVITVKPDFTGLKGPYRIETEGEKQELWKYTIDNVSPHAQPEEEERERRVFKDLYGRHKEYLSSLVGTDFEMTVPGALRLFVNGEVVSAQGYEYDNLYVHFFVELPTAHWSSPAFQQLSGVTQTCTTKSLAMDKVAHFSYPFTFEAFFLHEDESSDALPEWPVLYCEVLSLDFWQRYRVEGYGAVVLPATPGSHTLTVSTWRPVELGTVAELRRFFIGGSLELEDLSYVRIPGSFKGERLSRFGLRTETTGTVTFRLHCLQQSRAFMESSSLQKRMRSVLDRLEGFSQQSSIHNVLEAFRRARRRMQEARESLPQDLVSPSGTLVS
Nature of the assay: co-IP; lysates of co-transfected HEK293T cells; bait not told (FLAG M2 or HA beads); IP buffer 50 mM Tris-HCl pH 7.5, 150 mM NaCl, 1 mM EDTA, 5% glycerol, 0.5% Triton X-100; beads 3 hours at 4°C; Western blot.

The target of assay [2] is T2, B9D1 (co-IP of Figure 6H) (UniProt Q9UPM9).
T2 sequence: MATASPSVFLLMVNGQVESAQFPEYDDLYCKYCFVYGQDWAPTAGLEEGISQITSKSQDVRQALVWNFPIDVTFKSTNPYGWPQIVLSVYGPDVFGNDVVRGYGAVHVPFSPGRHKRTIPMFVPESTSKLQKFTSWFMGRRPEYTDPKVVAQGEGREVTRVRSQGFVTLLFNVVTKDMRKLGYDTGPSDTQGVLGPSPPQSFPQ
The description is as above.

In a further assay the target is TMEM67-HA (UniProt Q5HYA8). Described as above.

B1: MKS1-HA (protein, UniProt Q9NXB0 1-559)
chain: MAETVWSTDTGEAVYRSRDPVRNLRLRVHLQRITSSNFLHYQPAAELGKDLIDLATFRPQPTASGHRPEEDEEEEIVIGWQEKLFSQFEVDLYQNETACQSPLDYQYRQEILKLENSGGKKNRRIFTYTDSDRYTNLEEHCQRMTTAASEVPSFLVERMANVRRRRQDRRGMEGGILKSRIVTWEPSEEFVRNNHVINTPLQTMHIMADLGPYKKLGYKKYEHVLCTLKVDSNGVITVKPDFTGLKGPYRIETEGEKQELWKYTIDNVSPHAQPEEEERERRVFKDLYGRHKEYLSSLVGTDFEMTVPGALRLFVNGEVVSAQGYEYDNLYVHFFVELPTAHWSSPAFQQLSGVTQTCTTKSLAMDKVAHFSYPFTFEAFFLHEDESSDALPEWPVLYCEVLSLDFWQRYRVEGYGAVVLPATPGSHTLTVSTWRPVELGTVAELRRFFIGGSLELEDLSYVRIPGSFKGERLSRFGLRTETTGTVTFRLHCLQQSRAFMESSSLQKRMRSVLDRLEGFSQQSSIHNVLEAFRRARRRMQEARESLPQDLVSPSGTLVS
For the molecule B1, in the assay with TMEM67-FLAG, the binding result is recorded as “binds”.

B2: B9D2-HA (protein, UniProt Q9BPU9 1-175)
chain: MAEVHVIGQIIGASGFSESSLFCKWGIHTGAAWKLLSGVREGQTQVDTPQIGDMAYWSHPIDLHFATKGLQGWPRLHFQVWSQDSFGRCQLAGYGFCHVPSSPGTHQLACPTWRPLGSWREQLARAFVGGGPQLLHGDTIYSGADRYRLHTAAGGTVHLEIGLLLRNFDRYGVEC
With B2, the binding entry in the assay with TMEM67-FLAG is on record as “binds”.

B3: FLAG-B9D2 p.S101R (protein, UniProt Q9BPU9 1-175)
chain: MAEVHVIGQIIGASGFSESSLFCKWGIHTGAAWKLLSGVREGQTQVDTPQIGDMAYWSHPIDLHFATKGLQGWPRLHFQVWSQDSFGRCQLAGYGFCHVPRSPGTHQLACPTWRPLGSWREQLARAFVGGGPQLLHGDTIYSGADRYRLHTAAGGTVHLEIGLLLRNFDRYGVEC
As to B3, the binding entry was “no binding” in assay [1], “binds” in assay [2] and “binds” with TMEM67-HA.

B4: FLAG-B9D2 p.D47V (protein, UniProt Q9BPU9 1-175)
chain: MAEVHVIGQIIGASGFSESSLFCKWGIHTGAAWKLLSGVREGQTQVVTPQIGDMAYWSHPIDLHFATKGLQGWPRLHFQVWSQDSFGRCQLAGYGFCHVPSSPGTHQLACPTWRPLGSWREQLARAFVGGGPQLLHGDTIYSGADRYRLHTAAGGTVHLEIGLLLRNFDRYGVEC
B4: the binding result (in assay [1]; in assay [2]; with TMEM67-HA) was “binds” throughout.

B5: FLAG-B9D2 (WT) (protein, UniProt Q9BPU9 1-175)
chain: MAEVHVIGQIIGASGFSESSLFCKWGIHTGAAWKLLSGVREGQTQVDTPQIGDMAYWSHPIDLHFATKGLQGWPRLHFQVWSQDSFGRCQLAGYGFCHVPSSPGTHQLACPTWRPLGSWREQLARAFVGGGPQLLHGDTIYSGADRYRLHTAAGGTVHLEIGLLLRNFDRYGVEC
Regarding B5, the binding entry (in assay [2]; in the assay with TMEM67-HA) was “binds” throughout.

B6: FLAG-B9D2 p.R75W (protein, UniProt Q9BPU9 1-175)
chain: MAEVHVIGQIIGASGFSESSLFCKWGIHTGAAWKLLSGVREGQTQVDTPQIGDMAYWSHPIDLHFATKGLQGWPWLHFQVWSQDSFGRCQLAGYGFCHVPSSPGTHQLACPTWRPLGSWREQLARAFVGGGPQLLHGDTIYSGADRYRLHTAAGGTVHLEIGLLLRNFDRYGVEC
Turning to B6, the binding result (in assay [1]; in assay [2]; in the assay with TMEM67-HA) was “binds” in each case.
